Experimental data: PubChem BioAssay AID504845 (National Center for Advancing Translational Sciences (NCATS), 2011)
In all, about 390,000 compounds went through this assay and about 150 (0.038%) were called active. Inconclusive means that the source gave no clear call. Such entries were picked first, then a sample of the others. Calls follow the shape of the dose curve; as a rule, active = well fitted inhibition curve with a large enough effect; inconclusive = small, poorly fitted or top-dose-only effect; inactive = no such curve, though single readings can be large or run the other way. Where the call is inconclusive, the potency comes from a doubtful curve fit.

What follows are compounds tested against Regulator of G-protein signaling 4 (Homo sapiens) (UniProt P49798) (assay: Inhibitors of Regulator of G Protein Signaling (RGS) 4: qHTS). Conditions: Transcreener GDP fluorescence polarization, RGS4-accelerated GTP hydrolysis; series mostly up to 114 µM; activity change, negative = inhibition: at the top concentration.
In short: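 MLSMR compounds (23 nl, pin-transferred) preincubated 10 min at room temperature with a 500nM (2x) first reagent, then RGS4 at 900nM (2x) plus Transcreener GDP mix added; fluorescence polarization (620/688 nm) read before and after 90 min at 30 °C.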
% is scaled to controls: 0 for no effect and ±100 for the full control effect; potency is read from the fitted curve at half-maximal effect; tags tell the direction and shape of the fitted curve.
Also: nearly all actives have a fitted effect of over 75% in size.

Sequence of UniProt P49798 (P49798 whole entry, looked up): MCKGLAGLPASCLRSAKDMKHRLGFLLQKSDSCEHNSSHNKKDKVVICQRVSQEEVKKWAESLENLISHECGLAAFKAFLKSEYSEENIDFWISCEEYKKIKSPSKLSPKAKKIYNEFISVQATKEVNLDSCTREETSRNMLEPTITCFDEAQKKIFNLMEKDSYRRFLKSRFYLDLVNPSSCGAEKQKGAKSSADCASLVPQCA

SMILES	Potency	activity change, negative = inhibition
Cn1c(C(=O)Nc2ccc3c(c2)OCO3)cc2c(=O)n(C)c3ccccc3c21	inconclusive: 89.1 µM [inhibitor, partial curve, poor fit]	
Cc1cccc(Nc2nc(N)nc(CN3CCC(C(N)=O)CC3)n2)c1C		inactive: -16%
CC(=O)O[C@H]1[C@@H](O)[C@H](O)[C@H](Oc2c(O)c(C)c3c4c2[C@@H](C)CC[C@@H]4[C@@H](C)C[C@H]3C=C(C)C)O[C@H]1C		inactive: -9.26%
CC(C)OC(=O)c1ccc(NC(=O)c2cccc(-n3cnnn3)c2)cc1		inactive: 8.54%
Cc1cc(=O)oc2c3c(cc(OCC(=O)NCC(=O)N[C@H](C(=O)O)C(C)C)c12)OC(C)(C)CC3		inactive: 7.68%
CC1CCN(c2ccc(C(=O)Nc3ccc4c(c3)OCO4)cc2[N+](=O)[O-])CC1		inactive: -1.35%
COC(=O)c1ccc(/C=C/C(=O)c2cccc(OC)c2)cc1	inconclusive: 17.8 µM [inhibitor, full curve, poor fit]	
Clc1ccccc1CSc1nnc(-c2ccco2)c(-c2ccco2)n1	inconclusive: 17.8 µM [inhibitor, full curve, poor fit]	
O=C(CSc1ccc(-c2ccccn2)nn1)Nc1nccs1		inactive: 1.99%
Cc1nc(NCCCN2CCOCC2)c2oc3ccccc3c2n1		inactive: 9.3%
COc1ccc(/C=C/CN2CCN(CCc3ccccc3)C(CCO)C2)cc1 (stereo unspecified)	inconclusive: 89.1 µM [inhibitor, single point]	
COc1cc(/C=C(/C(=O)c2cccs2)c2nc3ccccc3[nH]2)cc(OC)c1O	inconclusive: 70.8 µM [inhibitor, single point]	
CN(C)S(=O)(=O)c1ccc(C(=O)OCC(=O)c2csc(N3CCCCC3)n2)cc1	inconclusive: 100 µM [inhibitor, single point]	
CCCc1nnc(NC(=O)CCCC(=O)O)s1	inconclusive: 89.1 µM [inhibitor, single point]	
COc1ccc(NC(=O)Cc2ccc(Cl)c(Cl)c2)cn1		inactive: 16.9%
COc1cccc(/C=C2\CCc3ccccc3C2=O)c1		inactive: -9.34%
CC(C)c1ccc(NC(=O)C2CCCN(S(=O)(=O)c3cccc4nsnc34)C2)cc1 (stereo unspecified)		inactive: 15.9%
COc1ccc(C(=O)C(C)OC(=O)c2cccc(S(=O)(=O)Nc3cc(Cl)c(OC)cc3OC)c2)cc1 (stereo unspecified)	inconclusive: 79.4 µM [inhibitor, partial curve, poor fit]	
CCc1ccc(S(=O)(=O)N2CCCC(N3CCN(c4ccc(OC)cc4)CC3)C2)cc1 (stereo unspecified)	inconclusive: 100 µM [inhibitor, single point]	
O=C(CSc1nnc(Cc2cccs2)n1Cc1ccco1)Nc1ccc(Cl)cc1Cl		inactive: -25.8%
CCOc1cc(CNc2ccc3[nH]c(=O)[nH]c3c2)ccc1OCC(=O)NC(C)(C)C	inconclusive: 89.1 µM [inhibitor, single point]	
O=C(/C=C/c1ccc(Br)cc1)NC(=O)c1ccccc1O	inconclusive: 89.1 µM [inhibitor, partial curve, poor fit]	
Cc1ccc(NC(=O)c2cncc(Br)c2)cc1S(=O)(=O)N(C)C	inconclusive: 50.1 µM [inhibitor, partial curve, poor fit]	
COc1cccc2sc(Nc3nc(-c4cc5ccccc5oc4=O)cs3)nc12	inconclusive: 35.5 µM [inhibitor, full curve, poor fit]	

SMILES	Potency	activity change, negative = inhibition
COc1cc(/C=C(/C#N)c2nc3ccccc3[nH]2)ccc1OCC(=O)Nc1ccccc1C		inactive: -14.2%
Oc1ccc(N2CCN(Cc3cc4c(cc3Br)OCCO4)CC2)cc1	inconclusive: 70.8 µM [inhibitor, partial curve, poor fit]	
CCOC(=O)c1c(NC(=O)c2cc(-c3ccc(Cl)cc3)on2)sc2c1CCCC2	inconclusive: 50.1 µM [inhibitor, partial curve, poor fit]	
C/C(=N\Nc1ccc(F)cc1F)c1ccc(Br)s1	inconclusive: 79.4 µM [inhibitor, partial curve, poor fit]	
Oc1c(Br)cc(Cl)cc1C=Nc1ccc(N2CCOCC2)cc1	inconclusive: 79.4 µM [inhibitor, partial curve, poor fit]	
NC(=S)N=Nc1ccc(O)cc1	inconclusive: 79.4 µM [inhibitor, partial curve, poor fit]	
Cc1ccc(C2CC2C(=O)NNC(=S)Nc2cccc(Cl)c2)cc1 (stereo unspecified)	inconclusive: 79.4 µM [inhibitor, partial curve, poor fit]	
Cc1cc(S(=O)(=O)ON2C(=O)c3ccccc3C2=O)ccc1F	inconclusive: 79.4 µM [inhibitor, partial curve, poor fit]	
CCOc1cc(C(=S)N2CCCC2)ccc1O	inconclusive: 50.1 µM [inhibitor, partial curve, poor fit]	
COc1cccc(CNC(=O)C(CC(C)C)NS(=O)(=O)c2ccc3c(c2)oc(=O)n3C)c1 (stereo unspecified)		inactive: 3.67%
Nc1nc(SCc2ccccc2)c2[nH]cnc2n1	inactive	
CCn1cc(C(=O)OCC(=O)OC2CC(C)CCC2C(C)C)c(=O)c2ccc(C)nc21 (stereo unspecified)		inactive: -4.06%
CN1CCc2c(sc3c2C(=O)NC(c2ccc(OC(=O)c4ccccc4)cc2)N3)C1 (stereo unspecified)	inconclusive: 28.2 µM [inhibitor, full curve, poor fit]	
Cn1c(SCC(=O)c2ccccc2)nnc1-c1cnccn1	inconclusive: 79.4 µM [inhibitor, partial curve, poor fit]	
O=C(Nc1cccn(Cc2ccc(F)cc2)c1=O)NC1CCCCC1		inactive: 3.87%
CCOC(=O)C1=C(COC(=O)C2CC(=O)N(c3ccc(CC)cc3)C2)NC(=O)NC1C (stereo unspecified)		inactive: -32.6%
Cc1ccc(NC(=S)/N=C(\N)Nc2nc(C)c3cc(C)ccc3n2)c(C)c1		inactive: -6.15%
CCC12CN(C(=O)c3ccc(C)cc3)CC(CC)(CN(C(=O)c3ccc(C)cc3)C1)C2=O		inactive: -12.7%
O=C(N/N=C/c1ccc2c(c1)OCO2)c1cc(-c2ccncc2)nc2ccccc12	inconclusive: 89.1 µM [inhibitor, single point]	
CN(C)CCCCOc1ccccc1F		inactive: -2.44%
COc1cccc(C(=O)NCCc2csc(-c3ccc(Cl)cc3)n2)c1		inactive: -1.71%
COc1ccccc1N1CCN(c2ncnc3onc(-c4ccc(F)cc4)c23)CC1	inconclusive: 35.5 µM [inhibitor, partial curve, poor fit]	
COC(=O)c1c[nH]c(=O)c2ccccc12	inconclusive: 17.8 µM [inhibitor, full curve, poor fit]	
COC(=O)c1c(NC(=O)CCCOc2ccc(C(C)(C)C)cc2)sc2c1C(C(=O)OC)CC2 (stereo unspecified)	inconclusive: 79.4 µM [inhibitor, partial curve, poor fit]	

SMILES	Potency	activity change, negative = inhibition
CCN1CCN(C(=S)c2ccc(Br)cc2)CC1	inconclusive: 20 µM [inhibitor, full curve, poor fit]	
CCN(CC)CCNC(=S)NC(=O)c1cn(-c2ccccc2)nc1-c1ccc(OC)cc1		inactive: 0%
COc1ccc(NC(=O)c2ccc(S(=O)(=O)N3CCOCC3)o2)cc1		inactive: 2.86%
COc1ccc(-n2ncc3c2CC(C)(C)CC3NC(=O)CN2CCOC2=O)cc1 (stereo unspecified)	inconclusive: 79.4 µM [inhibitor, single point]	
COc1cc(/C=C2\SC(c3ccccc3)=NC2=O)cc(Cl)c1O	inconclusive: 100 µM [inhibitor, partial curve, poor fit]	
C=CCCCCCCCCc1nc(=S)[nH][nH]1	inconclusive: 44.7 µM [inhibitor, partial curve, poor fit]	
COc1ccc(NC(=O)CC2CCCCC2)cc1OC		inactive: 3.09%
COc1cc2c(cc1OC)[C@H](Cc1ccc(O)cc1)NCC2	inconclusive: 50.1 µM [inhibitor, partial curve, poor fit]	
CCCCN(CC)CCNC(=O)CCn1cnc2onc(-c3ccc(F)cc3)c2c1=O		inactive: 12.4%
COc1cc(NC(=O)NCC2CCN(Cc3ccccc3Cl)CC2)cc(OC)c1OC	inactive	
CCN1CCN(CCOCCOc2ccccc2)CC1		inactive: -15.2%
COc1cccc(OC)c1OCCN1CCN(C(c2ccccc2)c2ccccc2)CC1		inactive: 32.7%
C/C(=N\Nc1ccccc1C)c1cccnc1	inconclusive: 17.8 µM [inhibitor, full curve, poor fit]	
CC(C)(C)n1nnnc1C(c1ccccn1)N(Cc1ccccc1)Cc1ccc(Cl)cc1 (stereo unspecified)	inconclusive: 89.1 µM [inhibitor, single point]	
CC1(C)C=Cc2c(c3c(c4c(=O)c(-c5ccc(O)cc5)coc24)OC(C)(C)CC3)O1		inactive: 8.31%
COC(=O)c1c(-c2ccc(OC)cc2)sc2ccc(OC)cc12		inactive: 16.8%
O=C(NCCc1ccccc1)C(=O)NC1CCCCC1		inactive: 6.13%
O=C1c2cccc(OCC(=O)N3N=C(c4cccs4)CC3c3ccc(F)cc3)c2CCN1Cc1cccnc1 (stereo unspecified)		inactive: -1.62%
CNc1ncnc2c1ncn2[C@H]1C[C@H](O)[C@@H](CO)O1	inconclusive: 0.134 µM [inhibitor, full curve, poor fit]	
O=C(NCc1ccco1)c1cc2cc(Br)ccc2o1	inconclusive: 35.5 µM [inhibitor, partial curve, poor fit]	
CCc1cnc2c(c1SC(C(C)=O)C(=O)N(C)C)c(=O)n(C)c(=O)n2C (stereo unspecified)	inconclusive: 89.1 µM [inhibitor, single point]	
CC(C)[C@H](NC(=O)[C@@H]1Cc2ccccc2CN1C(=O)OC(C)(C)C)C(=O)NC1CCCC1	inconclusive: 50.1 µM [inhibitor, partial curve, poor fit]	
O=C(CN1C(=O)c2ccccc2S1(=O)=O)c1ccccc1	inconclusive: 79.4 µM [inhibitor, single point]	
